This is one part of the list.

The experiment has as its system PfHDP1 homeodomain (GST-tagged). Kind of experiment: gcPBM binding intensity (ln(normalized median fluorescence intensity)); higher = stronger DNA binding. A digest of the protocol: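 Binding intensity values are the highest Masliner-normalised natural-log median intensity among replicate spots of either probe orientation. The binding step lasted 1 h in 1× PBS with 1% milk, 0.2 mg/ml BSA, 0.5% salmon testes DNA and 0.03% Triton X-100, using GST-tagged P. falciparum DNA-binding domains expressed in E. coli on an Agilent 4 × 180k array of primer-extended double-stranded 36-bp intergenic genomic probes plus negative controls. Alexa488 anti-GST antibody and a 488 nm scan detected bound protein.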
For the sequence “AAATATTACGGAATAAAGAGCTTTTAAATAATTTTA [CACACA_negctrl_site1700]”, the “gcPBM binding intensity (ln)” value came to 6.08.

For the sequence “ACTTTACAATATATATGTACATATTAATAAACATAT [XGTACX_site3689]”, the “gcPBM binding intensity (ln)” value turned out to be 7.

On to “AAAATAATATATGTATGTACATATACACATATAGAA [XGTACX_site2218]”, for which the “gcPBM binding intensity (ln)” value is 6.65.

For the sequence “GAGTTTTTTTAATGATGTACATTTTAAAAATAAACG [XGTACX_site1036]”, the “gcPBM binding intensity (ln)” value is 6.35.

Turning to “AAATGTTATAACTCTTGAAAAAACAAAATATCATCA [CACACA_negctrl_site1156]”, the “gcPBM binding intensity (ln)” value worked out at 6.29.

With “TAATTTCTTATGTATTGTACAAATAATGTATGATAT [XGTACX_site270]”, the “gcPBM binding intensity (ln)” value was determined as 6.63.

Consider “AATCACAAATAAAATAATATGACACAATATAAAATA [CACACA_negctrl_site537]”, for which the “gcPBM binding intensity (ln)” value worked out at 6.47.

With “TACTTACACTGTTTTTGTACTTATTTCCCTTTTATT [XGTACX_site2158]”, the “gcPBM binding intensity (ln)” value is 7.31.

Take “TTCTTGTATTTTCATAGTACATATAATGTCGTATTA [XGTACX_site600]”: the “gcPBM binding intensity (ln)” value turned out to be 6.71.

Take “GAACGCCATTCACATAAAGGGATACATAAATAAATA [XGTACX_negctrl_site330]”: the “gcPBM binding intensity (ln)” value was found to be 6.24.

For “GCGTTATTAAATAATTCACACACATATATATATATA [CACACA_site8711]”, the “gcPBM binding intensity (ln)” value was found to be 9.16.

Take “AAGAAAAACTTTACGTGTACCAAACGTCATGCCAAC [XGTACX_site2575]”: the “gcPBM binding intensity (ln)” value was 6.21.

For “ATACAAAATTTTTAAGAACACACAAAAATGTACTAT [CACACA_site8817]”, the “gcPBM binding intensity (ln)” value amounted to 6.31.

For “TGAGGTAACTAAATATGTACGTAACGAAGATACATA [XGTACX_site8231]”, the “gcPBM binding intensity (ln)” value was 6.4.

Regarding “TTTATAAAAATGAACACACACATATATATATATATA [CACACA_site3493]”, the “gcPBM binding intensity (ln)” value came to 9.37.

Consider “AAATATTTATAGGTTTGTACTTATAAATAAAAAAAA [XGTACX_site7360]”, for which the “gcPBM binding intensity (ln)” value was determined as 6.

As to “AATATGAAAAGATGAACAACAAAATGGAGAACAATA [GTGCAC_negctrl_site612]”, the “gcPBM binding intensity (ln)” value was 7.24.

Turning to “ATTTTTTTTTTTTTTTTTTTTTTTTATGAATGTTAT [CACACA_negctrl_site1319]”, the “gcPBM binding intensity (ln)” value was determined as 5.88.

As for “ATCAGGCAAAATTTTTGTACATATATATTTTATTTT [XGTACX_site1245]”, the “gcPBM binding intensity (ln)” value was 7.34.

As to “ATTTTTTTTTTTTTTTTTTTTTTTTTTTTTTTTTTT [CACACA_negctrl_site1364]”, the “gcPBM binding intensity (ln)” value was found to be 7.45.

For the sequence “AGATTTCAAGGTAATAGATCAATTTTAATTTGTAAA [CACACA_negctrl_site514]”, the “gcPBM binding intensity (ln)” value is 5.98.

For “AATTTTTTTTTCTTTTGTACGTAAATATGTGTAGGC [XGTACX_site215]”, the “gcPBM binding intensity (ln)” value is 6.8.

For “CTAATAAAAAAAAAAAGTACATATGACAATATAAAG [XGTACX_site1598]”, the “gcPBM binding intensity (ln)” value is 6.79.

Consider “TTAAAATGAAGAAGTGCACACATATATATATTTATA [CACACA_site8063]”, for which the “gcPBM binding intensity (ln)” value stood at 9.14.

For the sequence “TTAACACATTTTATGTGTACTCATATGATTTAAAAT [XGTACX_site7516]”, the “gcPBM binding intensity (ln)” value is 6.56.

Consider “TATAAACAGACGAAAACACACATATGTAGATATATA [CACACA_site6371]”, for which the “gcPBM binding intensity (ln)” value was 7.13.

As for “TATATATTAGTGTTGACACACACAAAAAAAAAAAAA [CACACA_site8392]”, the “gcPBM binding intensity (ln)” value was determined as 6.43.

Take “TATATATATATAATAGCATGCTATATTATATATATA [TGCATGCA_site886]”: the “gcPBM binding intensity (ln)” value is 8.41.

For the sequence “TATTCTTATTATTACACACACAATTATATTTACCCC [CACACA_site6381]”, the “gcPBM binding intensity (ln)” value is 7.35.

Turning to “TTAACATAAATTGTGTCATTTTTTTTTTTTTTTTTA [CACACA_negctrl_site1221]”, the “gcPBM binding intensity (ln)” value turned out to be 5.81.

For “TATTTTTTAATTGTTTCACACATTATTTTTTACATA [CACACA_site6078]”, the “gcPBM binding intensity (ln)” value was 6.41.

Regarding “ATAATATATATATATATGTATGTATATATGTATGTA [GTGCAC_negctrl_site575]”, the “gcPBM binding intensity (ln)” value turned out to be 6.49.

As for “ATGAACATGTGACAATGTACATTTATATCTTAAGAA [XGTACX_site4960]”, the “gcPBM binding intensity (ln)” value stood at 6.73.

For the sequence “TACACCCAGAAATGCACACACATATATATATATATA [CACACA_site5289]”, the “gcPBM binding intensity (ln)” value stood at 10.3.

Take “TATTCATGCATATACACACACATATATATATATTTT [CACACA_site3955]”: the “gcPBM binding intensity (ln)” value amounted to 7.44.

For “AATGAAAAATTGTAATGTACATAAATAAATAAATAA [XGTACX_site4048]”, the “gcPBM binding intensity (ln)” value is 6.94.

In the case of “ATCATAATTTATTATACACACAATACGTGACCTATT [CACACA_site6977]”, the “gcPBM binding intensity (ln)” value was 6.79.

As to “AAAAAAAAATTAAACATACACACGTTACTATTTTTA [CACACA_site1687]”, the “gcPBM binding intensity (ln)” value was 6.29.

Consider “TTTTATATAAATATCACACACACACGCATGTTTTAA [CACACA_site6187]”, for which the “gcPBM binding intensity (ln)” value is 6.71.

For “TACAATATACCTACTTGTACACAAAATAAAAGTAGT [XGTACX_site6029]”, the “gcPBM binding intensity (ln)” value was 6.3.

With “TACACACCTAACTATGCATGCATCAATATAGTGGAT [TGCATGCA_site443]”, the “gcPBM binding intensity (ln)” value is 6.55.

As to “AAAAAAAGTAAAAAGTGTACTTAATATATATATATA [XGTACX_site838]”, the “gcPBM binding intensity (ln)” value was 9.15.

In the case of “TGTAGCATTTAATTCACACATAAAAAATGTATCCAT [CACACA_site4986]”, the “gcPBM binding intensity (ln)” value stood at 6.5.

For the sequence “TATATGTGATAACACGCACACAAATGTATATAATTT [CACACA_site2593]”, the “gcPBM binding intensity (ln)” value amounted to 6.97.

On to “ATAAAATAAAAATTCTGTACAGAATTAAAAAAATAT [XGTACX_site6961]”, for which the “gcPBM binding intensity (ln)” value is 6.7.

In the case of “AAAAAAAAAAAACATACACACATTGAACTTTTATAT [CACACA_site3250]”, the “gcPBM binding intensity (ln)” value was 6.42.

On to “TATTAATTTATTTGTTGTACGTAAATATGCTTGTTT [XGTACX_site6591]”, for which the “gcPBM binding intensity (ln)” value worked out at 6.36.

For the sequence “AAAAAAAAAAAAAATTGTACCCAAATATTTTTGTAG [XGTACX_site8303]”, the “gcPBM binding intensity (ln)” value worked out at 6.15.

Take ATATATATATTTAAGGTGCGATTTTGTTATATTTAA: the “gcPBM binding intensity (ln)” value was found to be 7.89.

Take “TTTTTATTAGGACATGCATACAAAATTAAAAAAAAT [TGCATGCA_site258]”: the “gcPBM binding intensity (ln)” value is 6.76.

Take “CTTATTTTATGTTATACACACAAAGAAAAAAAATAA [CACACA_site2165]”: the “gcPBM binding intensity (ln)” value was 6.74.

On to “TTATGTATATTATAAATTAATACATTTAAATTAATA [CACACA_negctrl_site34]”, for which the “gcPBM binding intensity (ln)” value was found to be 5.93.

In the case of “TTATTAAAATATTAAAGTACAAAAAAAATAAATAAA [XGTACX_site6507]”, the “gcPBM binding intensity (ln)” value turned out to be 6.47.

“GTATATAATTTATGTGCACACACTCCTATTTTTAGC [CACACA_site49]”: the “gcPBM binding intensity (ln)” value worked out at 11.1.

As for “AATTATATTAATATATAATAAAATAGGATGTTATTT [XGTACX_negctrl_site309]”, the “gcPBM binding intensity (ln)” value came out at 6.13.

Turning to “TAACACTTTTTTTTTCGTACATATATTATATATATA [XGTACX_site5470]”, the “gcPBM binding intensity (ln)” value worked out at 6.98.

The values above are taken from the supplement of paper PMC11417369.
